Results on 45 compounds are retold here after PMC4336329 (PLoS ONE, 2015).

Among all 310,000 compounds or so, about 14,000 (4.5%) showed an effect of 50% or more. Effects have a minus sign here. The list shows a part of the results.
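Note: peak tail current of the secondary pulse compared with the same well before compound.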

The target in the experiment is human ether-à-go-go-related gene (hERG) potassium channel (human, UniProt Q12809). In words: primary screen, population patch clamp on CHO cells stably expressing hERG.
Sequence of human ether-à-go-go-related gene (hERG) potassium channel (Q12809 whole entry, looked up): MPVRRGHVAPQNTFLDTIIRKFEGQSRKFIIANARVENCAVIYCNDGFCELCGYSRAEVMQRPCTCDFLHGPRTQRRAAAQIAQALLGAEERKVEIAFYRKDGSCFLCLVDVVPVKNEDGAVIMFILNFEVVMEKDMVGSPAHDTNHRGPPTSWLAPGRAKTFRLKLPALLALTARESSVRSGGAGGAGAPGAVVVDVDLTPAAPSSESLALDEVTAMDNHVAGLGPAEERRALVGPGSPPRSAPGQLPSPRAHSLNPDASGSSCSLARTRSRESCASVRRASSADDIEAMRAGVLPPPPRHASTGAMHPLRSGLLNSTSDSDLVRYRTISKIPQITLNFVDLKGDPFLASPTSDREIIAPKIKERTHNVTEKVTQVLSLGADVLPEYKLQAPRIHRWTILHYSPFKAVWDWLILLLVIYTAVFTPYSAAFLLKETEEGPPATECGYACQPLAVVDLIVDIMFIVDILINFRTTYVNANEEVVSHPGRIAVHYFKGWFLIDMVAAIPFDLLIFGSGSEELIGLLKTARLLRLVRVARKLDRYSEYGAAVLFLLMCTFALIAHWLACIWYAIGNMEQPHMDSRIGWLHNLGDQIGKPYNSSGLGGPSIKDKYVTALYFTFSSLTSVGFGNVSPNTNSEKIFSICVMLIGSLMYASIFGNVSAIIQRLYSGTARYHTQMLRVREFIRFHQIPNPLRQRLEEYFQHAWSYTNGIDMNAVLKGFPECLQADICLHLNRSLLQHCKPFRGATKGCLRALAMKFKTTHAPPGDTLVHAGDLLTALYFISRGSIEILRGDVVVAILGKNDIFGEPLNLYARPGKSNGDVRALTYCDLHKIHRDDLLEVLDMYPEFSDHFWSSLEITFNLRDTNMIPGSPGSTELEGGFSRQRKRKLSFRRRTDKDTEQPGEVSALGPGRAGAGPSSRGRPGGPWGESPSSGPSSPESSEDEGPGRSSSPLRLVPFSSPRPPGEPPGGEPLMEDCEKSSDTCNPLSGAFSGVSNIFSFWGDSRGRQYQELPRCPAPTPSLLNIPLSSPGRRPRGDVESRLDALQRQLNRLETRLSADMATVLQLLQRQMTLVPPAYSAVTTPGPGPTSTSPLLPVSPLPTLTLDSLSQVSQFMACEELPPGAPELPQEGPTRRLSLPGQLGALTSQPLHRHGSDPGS
In the case of `COc1cccc(NC(=O)CN(C)C(=O)c2cc(C)on2)c1`, the “hERG current change (%, negative = inhibition) at 10uM” value was found to be 9.91%.
The figure for `CC(C)(C)NC(=O)CCN(/N=C/c1ccccc1)C1=NS(=O)(=O)c2ccccc21` is 4.51%; for `CC(NC(=O)c1ccc(CS(=O)(=O)c2ccc(Cl)cc2)o1)c1ccc2c(c1)OCCO2` (stereo not drawn) it is -18.9%; for `O=C1c2ccccc2NC(c2ccc(-c3cccc([N+](=O)[O-])c3)o2)N1O` (stereo not drawn) it is -18.6%.
The result for `COc1ccc(C)cc1S(=O)(=O)n1cnc(C)c1` reads 21.3%.
Turning to `OC1CCCN(Cc2cn(Cc3ccccc3)nc2-c2cc3ccccc3o2)C1` (stereo not drawn), the “hERG current change (%, negative = inhibition) at 10uM” value is -44.7%.
Regarding `CCc1ccccc1NC(=O)CSc1nnc(C2CC2)n1CC1CCCO1` (stereo not drawn), the “hERG current change (%, negative = inhibition) at 10uM” value worked out at 3.72%.
The figure for `COc1ccc2oc(=O)cc(CN(C)Cc3ccccc3)c2c1` is -11.5%; for `O=C(CCSc1ccc(Cl)cc1)N1CCN(c2ncccn2)CC1` it is -60.6%; for `CCCc1cc(=O)[nH]c(SCC(=O)c2cc(C)n(CCOC)c2C)n1` it is 5.72%.
In the case of `CCCSc1cc(N2CCOCC2)nc(-c2ccccc2Cl)n1`, the “hERG current change (%, negative = inhibition) at 10uM” value is on record as -1.91%.
The result for `COc1ccc(NC(=O)c2ccc3[nH]c(C)c(C)c3c2)c(OC)c1` reads 12.8%; that for `Cc1ccc(OCC(=O)Nc2ccccc2F)cc1C`, 23.6%; that for `CCOC(=O)c1ccc(S(=O)(=O)N(CCO)Cc2cc3cc(OC)c(OC)cc3[nH]c2=O)cc1`, 6.66%.
Turning to `CCOC(=O)c1cccc(Nc2nc(C)cc(C)n2)c1`, the “hERG current change (%, negative = inhibition) at 10uM” value was 10.7%.
On to `CCOC(=O)C1=C(CC)Nc2ccccc2N/C1=N\S(=O)(=O)c1ccccc1OC`, for which the “hERG current change (%, negative = inhibition) at 10uM” value is listed as 13.7%.
The figure for `Cc1cc(Nc2ccccc2)c2c([N+](=O)[O-])ccc(C)c2n1` is -24.7%; for `COc1ccc(OC)c(NP(=O)(Oc2ccccc2)Oc2ccccc2)c1` it is 0.409%; for `CC(C)(C)c1nnc(NC(=O)C2CC(=O)N(CCc3ccc(F)cc3)C2)s1` (stereo not drawn) it is 1.33%.
The result for `CCOC(=O)C(=O)Nc1nc(-c2ccccc2)c(-c2ccccc2)o1` reads -32.1%; that for `COc1ccc(CNc2nc3c(c(=O)[nH]c(=O)n3C)n2Cc2ccccc2C)cc1`, 4.58%; that for `O=C(COCc1cc(-c2ccc3c(c2)OCO3)on1)N1CCN(c2cccc(Cl)c2)CC1`, 9.68%.
The figure for `CCOCCCN(C)C1CCN(C(=O)c2oc3ccccc3c2NC(=O)Cc2ccc([N+](=O)[O-])cc2)CC1` is -81.5%; for `CCc1ccc2oc(=O)cc(CN3CCN(c4ccc(F)cc4)CC3)c2c1` it is -10.1%.
As for `O=C(Cc1ccccc1)NNC(=O)Nc1ccccc1`, the “hERG current change (%, negative = inhibition) at 10uM” value stood at 14.7%.
The result for `CCCn1nc(NC(=O)c2ccco2)c2cc3ccc(C)cc3nc21` reads 5.09%; that for `COc1ccc2cc(-c3[nH]ncc3CN3CCCCO3)ccc2c1`, 6.99%; that for `O=C(O)C1C2CCC(C2)C1C(=O)Nc1ccccc1` (stereo not drawn), 0.942%.
With `COc1ccc(CN(Cc2ccccn2)S(=O)(=O)c2ccc(-n3cnnn3)c(OC)c2)cc1`, the “hERG current change (%, negative = inhibition) at 10uM” value is -47.2%.
The figure for `Cc1ccc(C2=NN(C(=O)CCC(=O)O)C(c3ccc4c(c3)OCO4)C2)cc1` (stereo not drawn) is -2.17%.
Regarding `COc1cccc(/C=N/NC(=O)CCn2c3ccccc3c3ccccc32)c1`, the “hERG current change (%, negative = inhibition) at 10uM” value is 7.54%.
As for `Cc1cnc(C(=O)OCC(=O)NCCCc2ccccc2)cn1`, the “hERG current change (%, negative = inhibition) at 10uM” value is 19.7%.
With `O=C(/C=C/c1ccco1)N1CCN(S(=O)(=O)c2cccs2)CC1`, the “hERG current change (%, negative = inhibition) at 10uM” value is recorded as -7.4%.
The figure for `CCCCCC(=O)N1CCN(S(=O)(=O)c2ccc3c(c2)OCCO3)CC1` is -61%.
The figure for `COc1ccc(/C=C2\CCCC(C(=O)C(F)(F)F)=C2O)cc1OC` is 21.2%.
The figure for `COc1ccc(C(=O)Nc2ccc(C(=O)N3CCC(C)CC3)cc2)cc1OC` is 1.42%.
With `CC12CCC(C(=O)N(CCCN3CCN(Cc4ccccc4)CC3)C1=O)C2(C)C.Cl` (stereo not drawn), the “hERG current change (%, negative = inhibition) at 10uM” value is recorded as -6.77%.
The result for `O=C(CN1CCOCC1)Nc1ncc(Cc2cccc(Cl)c2)s1` reads -43%.
Take `CC1(C)CC(NC(=O)c2ccccc2Cl)CC(C)(C)N1.Cl`: the “hERG current change (%, negative = inhibition) at 10uM” value is -4.71%.
With `CCC(C(=O)Nc1cc(Cl)c(OC)cc1OC)c1ccccc1` (stereo not drawn), the “hERG current change (%, negative = inhibition) at 10uM” value was found to be 37.3%.
The figure for `O=C(CCCN1C(=O)c2cccnc2Oc2ccc(Cl)cc21)N1CCCCC1` is -9.27%; for `CN(C)c1ccc(C(=O)NCC(c2cccs2)N2CCOCC2)cc1[N+](=O)[O-]` (stereo not drawn) it is -7.74%; for `O=C(c1ccc(Br)cc1)N1CCC(C(=O)N2CCN(Cc3ccccc3)CC2)CC1` it is -60.1%.
As for `Fc1cccc(Cc2noc(CN3CCCCC3CCc3ccccn3)n2)c1` (stereo not drawn), the “hERG current change (%, negative = inhibition) at 10uM” value is 0.789%.
`N#C/C(=N\Nc1ccc([N+](=O)[O-])cc1)C(=N)N1CCOCC1`: the “hERG current change (%, negative = inhibition) at 10uM” value is listed as -54.2%.
